Test results reported in PubChem BioAssay AID360 (National Center for Advancing Translational Sciences (NCATS), 2006).
Hit rate of the full screen: of about 48,000 compounds, about 550 (1.1%) were called active. Another 4% or so got no clear call; they are omitted. Cut-off read from the data, not from the text of the source: active = potency below about 15 µM; inconclusive = mostly about 16 µM to 33 µM; inactive = weaker than that. The list shows a part of the results.

target: Lysosomal acid glucosylceramidase (Homo sapiens) (UniProt P04062); experiment: Glucocerebrosidase; details: purified enzyme, resorufin glucoside fluorescence (screen aimed at inhibitors), 20 min;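 note: the screen sought inhibitors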
How it was run: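 Compounds titrated against 0.2 nM normal enzyme, 30 uM resorufin beta-D-glucopyranoside substrate, citrate/phosphate buffer with taurocholate and tween-20, pH 5.9. Reaction ran 20 min at room temperature; fluorescence (Ex 548/Em 600) gave AC50.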
Potency is the fitted concentration of half-maximal effect.

Chain of UniProt P04062 (P04062 whole entry, looked up): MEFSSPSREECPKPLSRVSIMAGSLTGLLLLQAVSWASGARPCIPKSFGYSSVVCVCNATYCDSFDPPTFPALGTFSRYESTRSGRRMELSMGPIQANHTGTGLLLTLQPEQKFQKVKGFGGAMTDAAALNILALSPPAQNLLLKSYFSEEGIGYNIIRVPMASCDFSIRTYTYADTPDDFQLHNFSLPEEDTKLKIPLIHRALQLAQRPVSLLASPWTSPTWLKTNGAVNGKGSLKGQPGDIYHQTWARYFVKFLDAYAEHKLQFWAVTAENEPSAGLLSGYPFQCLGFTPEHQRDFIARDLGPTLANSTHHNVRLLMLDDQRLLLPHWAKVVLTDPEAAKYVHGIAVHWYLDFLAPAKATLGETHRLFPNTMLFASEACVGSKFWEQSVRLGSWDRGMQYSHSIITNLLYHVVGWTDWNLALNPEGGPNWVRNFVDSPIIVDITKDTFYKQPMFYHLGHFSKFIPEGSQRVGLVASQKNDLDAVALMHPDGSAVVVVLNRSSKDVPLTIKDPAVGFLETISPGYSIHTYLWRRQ

Potency, inactive:
O=C(Cn1nnc(-c2ccc(N3CCOCC3)cc2)n1)OC1CCCCC1 > 76.9 µM
C#CCOC(=O)c1ccccc1C(=O)n1nnc2ccccc21 > 76.9 µM
CC(=O)Nc1cc(-c2ccccc2)ccc1O > 76.9 µM
Cc1ccc(C2C(=O)N(C3CCC(C)CC3)CC(=O)N2C2CC2)cc1 (configuration not stated) > 76.9 µM
CC(CN1CCCCC1)OC(=O)c1cc2ccccc2o1 (configuration not stated) > 76.9 µM
Cn1cc(/C=N/n2cnc3scc(-c4ccc(Cl)cc4)c3c2=O)c2ccccc21 > 76.9 µM
Cc1occc1-c1nnc(SCCCC(=O)c2ccc(F)cc2)n1C > 76.9 µM
C=CCn1c(SCC(=O)NCC(=O)OCC)nnc1-c1cccc(OC)c1 > 76.9 µM
CC(C)(C)c1cc(C(=O)NCc2cccnc2)ccn1 > 76.9 µM
CC(C)CN(CCCNC(=O)CC1Oc2ccccc2NC1=O)CC(C)C (configuration not stated) > 76.9 µM
CSCCC(NC(=O)C1CCC(C)CC1)C(=O)O (configuration not stated) > 76.9 µM
COc1ccccc1N1CCN(C(=O)c2ccc(NC(C)=O)cc2)CC1 > 76.9 µM
N=c1c(C(=O)NCc2ccc(F)cc2)cc2c(=O)n3ccccc3nc2n1CC1CCCO1 (configuration not stated) > 76.9 µM
CCOc1cccc2cc(C(=O)Nc3nccs3)c(=O)oc12 > 76.9 µM
CCOC(=O)c1ccccc1NS(=O)(=O)c1ccccc1F > 76.9 µM
O=C(NCc1ccco1)C1CC(=O)N(c2ccc(O)cc2)C1 (configuration not stated) > 76.9 µM
COCCNC(=O)C(c1ccc(C)o1)N(CC1CCCO1)C(=O)Cn1nnc2ccccc21 (configuration not stated) > 76.9 µM
Cc1ccc(CNC(=O)c2sccc2-n2cccc2)cc1 > 76.9 µM
Cc1ccc(Cn2c(=O)c3c(nc4n3CCN4Cc3ccco3)n(C)c2=O)cc1 > 76.9 µM
O=C(Nc1cccc(OC(=O)c2ccco2)c1)c1ccco1 > 76.9 µM
Cc1c(C(=O)NCCCN2CCCC2=O)oc2ccccc12 > 76.9 µM
COc1ccc(NC(=O)Nc2ccccc2C(N)=O)cc1OC > 76.9 µM
C=CCC1c2cccc(C(=O)O)c2C(=O)N1c1ccc(F)cc1 (configuration not stated) > 76.9 µM
O=C(NCCCN1CCOCC1)c1c(O)c2cc(Br)cc(Br)c2[nH]c1=O > 76.9 µM
COC(=O)c1cc(S(=O)(=O)N2CCC(C)CC2)ccc1F > 76.9 µM
CC1CCCN(CCCNC(=O)c2coc3nc4ccccc4nc23)C1 (configuration not stated) > 76.9 µM
COc1ccccc1NC(=O)CCn1c(=O)sc2ccccc21 > 76.9 µM
CCC(=O)Nc1cc(C)c(NC(=O)c2ccco2)cn1 > 76.9 µM
CC(C)Cn1c2c(c(O)c(C(=O)Nc3ncccc3O)c1=O)CCCC2 > 76.9 µM
CCOc1ccc(NC(=O)CN2C(=O)C3CC=CCC3C2=O)cc1 (configuration not stated) > 76.9 µM
O=C1CC(c2ccco2)Cc2nc(N3CCN(Cc4ccc5c(c4)OCO5)CC3)ncc21 (configuration not stated) > 76.9 µM
COC(=O)CNC(=O)COC(=O)C(Cc1ccccc1)NC(=O)c1ccco1 (configuration not stated) > 76.9 µM
Cn1nnnc1SCc1nc2ccccc2s1 > 76.9 µM
c1ccc(Cn2nnc3c(NCC4CCCO4)ncnc32)cc1 (configuration not stated) > 76.9 µM
O=c1c2c3c(sc2nc2sc(C4CC4)nn12)CCCC3 > 76.9 µM
CC(C)c1ccc2oc(-c3ccc(NC(=O)c4ncn[nH]4)cc3)nc2c1 > 76.9 µM
Cc1ccc(-n2c(Cc3cccn3C)nnc2SCC(=O)Nc2ccc3c(c2)OCO3)cc1 > 76.9 µM
CCOc1ccccc1Nc1nnc(SCc2ccc(C(=O)OC)o2)s1 > 76.9 µM
Cc1cc(NC(=O)c2cccc(C(=O)Nc3cc(C)on3)n2)no1 > 76.9 µM
CCC(C)(C)NC(=O)C(c1ccccc1F)N(Cc1ccco1)C(=O)c1csnn1 (configuration not stated) > 76.9 µM
COCCN(CC(=O)Nc1cccc(C)c1)S(=O)(=O)c1ccc(S(=O)(=O)N2CCCC2)cc1 > 76.9 µM
Cc1ccc(CNC(=O)C2CCN(S(=O)(=O)N3CCOCC3)CC2)cc1
CCOC(=O)CSc1cn2c(n1)CCC2 > 76.9 µM
O=C(Nc1ccon1)c1cc(-c2ccccc2)nc2ccccc12 > 76.9 µM
Cc1nc2c(-c3ccccc3)c(C)nn2c(C)c1CC(=O)O > 76.9 µM
COc1cc(C)c(C#N)c(OC)n1 > 76.9 µM
O=C(Cn1cnc2ccccc2c1=O)NCCC(=O)N1CCN(c2ccccc2)CC1 > 76.9 µM
CCCn1c(CCc2ccccc2)nnc1SCC(=O)N1CCOCC1 > 76.9 µM
CCC(COC(=O)Nc1cccc(C)c1)NC(=O)OCC(C)C (configuration not stated) > 76.9 µM
COCCCn1c(SCC(=O)OC2CCCCC2)nnc1-c1cccs1 > 76.9 µM
O=C(O)CSc1nnc(-c2ccncc2)n1CCc1ccccc1 > 76.9 µM
CC(=O)c1c(C)nn(CC(O)COc2ccc3c(c2)CCC3)c1C (configuration not stated) > 76.9 µM
Cc1cc(NC(NC(=O)c2ccco2)(C(F)(F)F)C(F)(F)F)no1 > 76.9 µM
Cc1cc(C(F)(F)F)c2sc(N)nc2n1 > 76.9 µM
Cc1cc2c(c(=O)n1CCc1ccccc1)C(C(C)C)C(C#N)=C(N)O2 (configuration not stated) > 76.9 µM
Cc1cc2oc(=O)cc(CN3CCCc4ccccc43)c2cc1C > 76.9 µM
Cc1nn(-c2ccc(Cl)cc2)c2[nH]c(=O)c(CNCc3ccc4c(c3)OCO4)cc12
CC(=O)NC1=NC(=O)CS1 > 76.9 µM
CCCS(=O)(=O)N1CCCC(C(=O)NCCCN(CC)c2cccc(C)c2)C1 (configuration not stated) > 76.9 µM
Cc1n[nH]c(C)c1SCC(=O)Nc1ccc(F)cc1 > 76.9 µM
Cn1c(=O)cc(OCCCC(=O)N2CCN(c3ccccn3)CC2)c2ccccc21 > 76.9 µM
CCOC(=O)c1c(NC(=O)c2noc3c2CCCC3)sc2c1CCCC2 > 76.9 µM
COc1cc(Cl)c(S(=O)(=O)N2CC(C)OC(C)C2)cc1Cl (configuration not stated) > 76.9 µM
CCC(c1nnnn1C1CCCCC1)N(Cc1ccco1)Cc1cc2ccc(OC)cc2[nH]c1=O (configuration not stated) > 76.9 µM
Cc1ccc(CCNC(=O)C2CCN(S(=O)(=O)N3CCCC3)CC2)cc1 > 76.9 µM
Fc1ccccc1OCCSc1nc2ccccc2o1 > 76.9 µM
CC1(C)CC(=O)C2=C(C1)OC(N)=C(C#N)C2C#Cc1ccccc1 (configuration not stated)
CCCc1cc(=O)[nH]c(/N=C(\N)Nc2ccccc2)n1 > 76.9 µM
Cc1c(C(=O)NCc2cccnc2)oc2c1C(=O)CC(C)(C)C2 > 76.9 µM
C/C=C(\C)CN1CCN(c2ccccc2F)CC1 > 76.9 µM
CC(C)COC(=O)NCCCOC(=O)Nc1ccccc1 > 76.9 µM
COc1ccc(Nc2nc(C)cc(C)c2C#N)cc1 > 76.9 µM
Cc1noc(NS(=O)(=O)c2ccc(NC(=O)CSc3nc4ccccc4s3)cc2)c1C > 76.9 µM
CCOC(=O)Cc1csc(NC(=O)C(C)(C)C)n1 > 76.9 µM
c1ccc(-c2nc(C3CCCCC3)no2)cc1 > 76.9 µM
COCCCNC(=O)CS(=O)Cc1nc(-c2cccc(OC)c2)oc1C (configuration not stated) > 76.9 µM
CCn1c(SCC(=O)Nc2nnc(C)s2)nnc1-c1ccco1 > 76.9 µM
COc1ccc(-c2nsc3c(N4CCN(S(=O)(=O)c5ccccc5)CC4)ncnc23)cc1 > 76.9 µM
Nn1c(SCC(=O)N2CCCc3ccccc32)nnc1-c1ccc(Cl)cc1 > 76.9 µM
O=C(Nn1cc(C(=O)N2CCN(c3ccccc3F)CC2)c2ccccc2c1=O)c1cnccn1
CN1CCN(c2nc3c(c(=O)n(C)c(=O)n3C)n2CC(=O)C23CC4CC(CC(C4)C2)C3)CC1 > 76.9 µM
COc1ccc(C(=O)Oc2c(CN3CCOCC3)cc(Cl)c3cccnc23)cc1 > 76.9 µM
Cc1cc2cc(C(c3nnnn3Cc3ccco3)N3CCc4ccccc43)c(=O)[nH]c2cc1C (configuration not stated) > 76.9 µM
COc1ccccc1NC(=O)Nc1ccnn1Cc1cccs1 > 76.9 µM
CCn1c(COc2cccc(OC)c2)nnc1SCC(=O)N1CCOCC1 > 76.9 µM
COC(=O)C1=C(N)Oc2cc(N(C)C)ccc2C1c1ccccc1OC (configuration not stated) > 76.9 µM
COC(=O)c1ccc(NC(=O)CSc2nnc(CNc3ccc(OC)cc3)n2C)cc1 > 76.9 µM
CS(=O)(=O)N1CCCC(C(=O)NC2CCCCCCC2)C1 (configuration not stated) > 76.9 µM
CC(C)NC(=O)Cn1c(SCC(=O)N2c3ccccc3CC2C)nc2ccccc21 (configuration not stated) > 76.9 µM
COc1ccc(C2(C(=O)Nc3ccc(C(=O)O)cc3)CCOCC2)cc1 > 76.9 µM
Cn1c(=O)oc2cc(S(=O)(=O)NC3CCCCCCC3)ccc21 > 76.9 µM
COC(=O)COc1ccc(S(=O)(=O)NCc2cccnc2)cc1 > 76.9 µM
